Data from PubChem BioAssay AID902 (National Center for Advancing Translational Sciences (NCATS), 2007).
Values joined by “and” are separate entries in the source; they are usually repeats but may differ in a detail not shown here. Equal values may be shown once. Screen size: about 130,000 compounds; about 1,900 (1.5%) were called active. The inconclusive results got no clear call from the source; some entries with a clear call stand among them for comparison. Calls come from the whole dose curve; as a rule, active = well fitted cell-killing curve with a large enough effect; inconclusive = small, poorly fitted or top-dose-only effect; inactive = no such curve, though single readings can be large or run the other way. A potency beside an inconclusive call is a rough fit, not a confirmed value.

Experiment: qHTS Screen for Compounds that Selectively Target Cancer Cells with p53 Mutations: Cytotoxicity of p53ts Cells at the Nonpermissive Temperature; note: nearly all actives have a fitted effect of over 55% in size
Details: H1299-p53A138V viability at 39C, ATP luminescence, 24 h; activity change, negative = cell killing: at 46.1 µM (top of the series)
From the text: NIH Chemical Genomics Center [NCGC] NIH Molecular Libraries Screening Centers Network [MLSCN] MLSCN Grant: 1 X01 MH079844-01 Assay Submitter (PI): Dr. SUN, YI, University of Michigan NCGC Assay Overview: Synthetic Lethal Screen for Compounds to Kill Cancer Cells with p53 Mutation. Tumor suppressor gene p53 serves as a major cellular barrier against tumorigenesis. […] The goal of this screening is to identify small molecule probes that selectively kill cancer cells with mutations in p53. This screening was carried out using two lines of H1299 lung cancer cells. The H1299-p53 A138V line express a temperature sensitive p53 mutant (p53ts) in which the mutant p53 protein (A138V) is in the mutant confirmation when grown at 39C (the nonpermissive temperature) and in the wild type conformation when grown at 32C (the permissive temperature). A H1299-neo line (p53 null) grown at both 39C and 32C were used as counter-screens to filter out false positive associated with temperature shifting. The small molecular compounds that selectively target mutant p53-containing cancer cells were selected as candidate probes for further study. A cytotoxicity assay based on the measurement of ATP contents in cells was used in this screen. Concentration-responses of all the compounds in the library collection were determined in qHTS using the cell lines and temperature conditions as above.
NCGC Assay Protocol Summary: Both the H1299-p53A138V and H1299-neo cell lines were provided by Dr.Yi Sun, a PI at the University Michigan. The cells were maintained and cultured at 37C. The resuspended frozen cells were used to plate the cells in the 1536-well assay plates at a density of 600 cells per well in 5 ul medium. The assay plates with the cells were incubated at 37C for 16 to 30 hours before the experiments. The library compounds in DMSO solution were added to the cells in assay plates and incubated 24 hours at 39C (for mutant p53 conformation) or 32C (for normal p53 conformation as control). An ATP_lite assay kit (PerkinElmer) was used to determine the cell viability. Tomaxifen (100uM) was used as the positive control for cell killing. Data were normalized to the controls for basal activity (DMSO only) and 100% killing (100uM tamoxifen). AC50 values were determined from concentration-response data modeled with the standard Hill equation. P53 assay protocol: 1. Reagent; 5 uL H1299-p53A138V or H1299-neo cell cells/well 2. Time; overnight; 37C incubation 3. Compounds; 23 nL; 5.9 nM to 46 uM 4. Controls; 23 nL; Tamoxifen 100 uM 5. Time; 24 hr; 39C incubation 6. Reagent; 3 uL; ATP_Lite reagent 7. Time; 20 min; Room Temperature 8. Detection; Luminescence; Viewlux plate reader Keywords: p53, synthetic lethal, cancer, cell viability, cytotoxicity, H1299 cell line, luminescence, MLSMR, MLSCN, NIH Roadmap, qHTS, NCGC
% is set by controls: 0 for no effect and ±100 for the full control effect; potency is the fitted concentration of half-maximal effect; tags give direction and shape of the fitted curve.

Structure (SMILES)	Potency	activity change, negative = cell killing
COc1ccccc1-c1cc(C(F)(F)F)nc(S(=O)(=O)CCCC(=O)Nc2cc(C)on2)n1	inconclusive: 31.6 µM [cytotoxic, single point]	
COc1cc(C(=O)Nc2ccc(-c3nc4ccccc4o3)c(O)c2)cc(OC)c1OC	inconclusive: 6.31 µM [cytotoxic, partial curve]	
COc1cc2c(cc1OC)C(COc1ccc(F)cc1)N(C(=O)Cc1ccccc1)CC2 (stereo not drawn)	inconclusive: 15.8 µM [cytotoxic, single point]	
O=S(=O)(NCC(c1ccccc1)N1CCc2ccccc21)c1ccccc1 (stereo not drawn)	inconclusive: 31.6 µM [cytotoxic, single point]	
CCn1c(=N)c(C(=O)NCC2CCCO2)cc2c(=O)n3cc(C)ccc3nc21 (stereo not drawn)	inactive	
COc1ccc(-c2nc3ccccc3s2)cc1NC(=O)c1cccc([N+](=O)[O-])c1C	inconclusive: 12.6 µM [cytotoxic, single point]	
CC1(C)CC(=O)c2cnc(N3CCN(c4ccccc4)CC3)nc2C1	inactive	
CC(C)=CCC/C(C)=C/C=O	inactive	
CC(=O)Nc1ccc(S(=O)(=O)Nc2cccc(-c3ccc(N4CCCCCC4)nn3)c2)cc1	inconclusive: 12.6 µM [cytotoxic, partial curve]	
COc1ccc(Oc2ncc3nc(-c4cc(F)cc(F)c4)c(=O)n(C)c3n2)cc1	inconclusive: 31.6 µM [cytotoxic, single point]	
CCCCOC(=O)c1c(C)oc2ccc(NS(=O)(=O)c3ccc(F)cc3C)cc12	inconclusive: 15.8 µM [cytotoxic, single point]	
O=C(/C(C=Nc1ccc(F)cc1)=C(/O)c1ccco1)C(F)(F)F	inconclusive: 11.2 µM [cytotoxic, partial curve]	
COc1cc2nc(Nc3ccc(C)c(C)c3)nc(N)c2cc1OC	inconclusive: 31.6 µM [cytotoxic, single point]	
c1ccc(-c2ccc(N3CCCC4(CCNCC4)C3)cc2)cc1	active: 12.6 µM	
O=c1oc2c(O)c(O)cc3c(=O)oc4c(O)c(O)cc1c4c23	inconclusive: 12.6 µM [cytotoxic, partial curve, poor fit] and inconclusive: 31.6 µM [cytotoxic, single point]	
Cc1ccc(/C=C/c2nc3ccccc3n2S(=O)(=O)c2cccc(Cl)c2)cc1	active: 3.16 µM	
c1ccc2c(N3CCNCC3)nc(-c3ccc4c(c3)OCO4)nc2c1	inactive	

Structure (SMILES)	Potency	activity change, negative = cell killing
Cc1ccc(NS(=O)(=O)c2ccc(-c3cc(C)no3)cc2)c(C)c1	inconclusive: 0.0158 µM [cytotoxic, full curve, poor fit]	
CCCN(CCC)CCCNC(=O)c1sc2nc3n(c(=O)c2c1C)CCC3	inactive	
COc1cccc(C2=NOC(C(=O)N3CCc4ccccc4C3)C2)c1 (stereo not drawn)	inconclusive: 31.6 µM [cytotoxic, single point]	
COc1ccc(OC)c(-c2cc(C(=O)Nc3cccc(Cl)c3)no2)c1	inconclusive: 31.6 µM [cytotoxic, partial curve]	
CN(Cc1ccccc1)c1nc2c(c(=O)[nH]c(=O)n2C)n1CCCc1ccccc1	inactive	
O=c1[nH][nH]c(=S)c(=O)[nH]1		inactive: 11.5% [at 9.22 µM]
N#Cc1cc2c(nc1SCc1nc3ccccc3[nH]1)CCC2	active: 5.01 µM	
CCS(=O)(=O)N1CCc2cc(C(=O)Nc3cccc(NC(C)=O)c3)ccc21	inconclusive: 3.98 µM [cytotoxic, full curve, poor fit]	
Cc1ccc2cc3cc(C(=O)NCCCN4CCc5ccccc5C4)oc3nc2c1	inconclusive: 15.8 µM [cytotoxic, partial curve]	
CSc1cccc(NC(=O)C2CCCN(S(=O)(=O)c3ccc4c(c3)CCCN4C(C)=O)C2)c1 (stereo not drawn)	inactive	
O=C(CN1C(=O)C(c2ccc(F)cc2)=NC12CCCCCC2)Nc1ccc(F)c(Cl)c1	active: 10 µM	
COc1cccc(NC(=O)CSc2nc3ccc(NC(=O)c4ccco4)cc3s2)c1	inconclusive: 10 µM [cytotoxic, partial curve]	
Cc1cc(OCCCSc2nc(-c3ccc(C(C)(C)C)cc3)nc3cc(=O)[nH]n23)ccc1Cl	active: 15.8 µM	
COc1cccc(CNC(=O)CC(c2ccc(F)cc2)N2Cc3ccccc3C2=O)c1 (stereo not drawn)	inconclusive: 31.6 µM [cytotoxic, single point]	
CCC(Sc1nc2cc3c(cc2c(=O)n1Cc1ccco1)OCO3)C(=O)Nc1cccc(OC)c1 (stereo not drawn)	inconclusive: 12.6 µM [cytotoxic, single point]	
O=c1c2ccccc2nc(SCc2ccc([N+](=O)[O-])cc2)n1-c1ccc(Cl)cc1	inconclusive: 5.01 µM [cytotoxic, single point]	
